Assay results: the supplement of paper PMC3334620
In all, about 33,000 sequences were measured (“E-score (-0.5 to 0.5)”: median about -0.016, highest 2% from about 0.32 on). The list shows a part of the results.

target: T1, Stp1 (UniProt B3LFK1); experiment: PBM E-score (8-mer binding enrichment) (E-score (-0.5 to 0.5)); higher = stronger / more preferred TF binding; most listed sequences are background and not binding sites; conditions: protein concentration: 200 nM; construct: GST-full length
T1 sequence: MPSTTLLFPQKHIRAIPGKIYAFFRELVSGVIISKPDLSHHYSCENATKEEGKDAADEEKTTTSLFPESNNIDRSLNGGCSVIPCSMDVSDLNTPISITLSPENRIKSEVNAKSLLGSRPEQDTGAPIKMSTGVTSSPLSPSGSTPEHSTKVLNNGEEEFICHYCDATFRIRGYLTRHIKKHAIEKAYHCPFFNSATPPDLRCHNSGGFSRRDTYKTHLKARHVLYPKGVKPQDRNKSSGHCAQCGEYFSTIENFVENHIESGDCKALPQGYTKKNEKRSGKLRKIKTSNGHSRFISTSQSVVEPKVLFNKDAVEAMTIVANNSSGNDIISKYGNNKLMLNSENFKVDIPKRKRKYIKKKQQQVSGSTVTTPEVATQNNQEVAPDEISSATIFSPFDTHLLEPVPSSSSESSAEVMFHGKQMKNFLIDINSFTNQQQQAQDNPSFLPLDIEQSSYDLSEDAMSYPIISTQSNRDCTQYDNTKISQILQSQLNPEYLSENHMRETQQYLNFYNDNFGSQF
Procedure, shortened: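 Universal all-10-mer Agilent arrays, fresh or stripped once, were converted to double-stranded form by primer extension. GST-tagged yeast transcription factors from PURExpress in vitro transcription/translation, full-length or DNA-binding domain only, were applied at about 100-200 nM and detected with fluorescent anti-GST. After masliner normalisation, the Universal PBM Analysis Suite scored each ungapped eight-base word together with its reverse complement by E-score.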

Sequence | PBM E-score
ACCACCGA | 0.102
CAACCCAG | -0.182
CTGGACAA | -0.12
CCTCCTGC | -0.205
CGCATTAA | 0.144
AACCTTGG | -0.148
ACCATCTC | -0.0267
CCCTCACA | -0.194
AGAGGACC | -0.297
CTTTTGGA | 0.0549
TCAATAAA | 0.144
CCGATACC | 0.0333
TCCAGAGA | -0.171
TCTGCCCA | -0.0964
AGTGCGAT | -0.0927
GGTTCAGA | -0.0328
GGTTTTGA | 0.14
TATTCGCA | 0.0691
CGAACAAA | 0.211
CTTTTCGA | 0.174
GTATCGAA | 0.136
AGTATCGC | 0.0252
CTTCACGA | -0.234
AAAGAACT | 0.0844
GCATGGTA | -0.0343

Sequence | PBM E-score
CCATATGA | -0.0232
ATAGAGGC | 0.121
ATTCAGGA | 0.0535
TCTCTAAA | -0.0775
GCTCGAAA | 0.123
ATTGTTCG | 0.261
GCACGCCA | 0.0857
CAACCGAG | -0.0298
GCGGCGCC | 0.484
ATCTCCTG | 0.0188
CAGCGAAG | -0.0904
GACCTCAA | -0.00129
CCCACCGC | -0.0654
CTAGGGAG | -0.329
TGGTCCAA | -0.102
GAAAGCAA | 0.196
ACACGATA | 0.0591
AGGTAGGA | -0.164
GACCTAAA | 0.0476
AACGTCGT | -0.148
GTGTAGTA | -0.146
CTGGCTGA | -0.0718
AGCGTACG | -0.0361
AGGGTCAT | -0.233
AACCCCGA | -0.19

Sequence | PBM E-score
TGAGCGAA | 0.0336
GGGCCCCC | -0.324
ACCTTAGC | -0.174
CCGTAAGA | -0.0261
CTAGAACA | 0.0505
CTCAAAGC | 0.052
CCCACCAA | -0.0761
AAGGCCCT | 0.0902
ATTAATAG | 0.169
AGTCGCAA | 0.0442
AGATCCAG | 0.0493
ATCAGTTC | -0.0252
AATCGCGT | -0.0848
CTCCACTA | -0.118
GAGAGCTC | -0.302
TCACCTAA | 0.0322
GAATGTGA | -0.0936
CATTCGCA | -0.0378
AGTTGGAA | 0.155
AATCGGTA | -0.0507
AATTATGT | 0.138
AAACGTCG | -0.00841
AGAAGAGC | 0.102
CCGAATCG | 0.108
AGACCACA | -0.08

Sequence | PBM E-score
ACTACGCG | 0.175
GAACTGGC | -0.0549
ATAGGGGC | -0.277
GCAGTGGC | 0.167
CACCAGTA | 0.0127
ACCGTTCC | 0.15
CCGTGAGC | 0.0383
AGAGACGA | -0.0255
CGATCGTC | 0.104
CCACAGTC | -0.328
CAGCGTAA | 0.0467
AAACATAT | 0.267
CATTACAA | 0.094
AAACTGGA | -0.0976
CAGTATGG | 0.0561
TCAACCGA | 0.179
CAAGGCTC | 0.0922
CGAGCATA | -0.188
GTAACTGA | 0.0678
CCCGTCCC | -0.249
GTTGTGGA | -0.0929
CGAAAAAC | 0.0494
GGATGCAA | -0.138
AAGTGCCA | 0.163
CACGTCTA | 0.00453

Sequence | PBM E-score
GGTTATAC | 0.0428
CACTGCTC | 0.0609
CGGTGCGC | 0.0602
AGTTCTTA | -0.0969
CTATACAG | -0.0681
CGCACGAG | -0.0435
AGGTCTGG | -0.233
AAGACACT | 0.108
CGCGAGCG | -0.0583
ATGAGAAT | 0.146
ATATACCC | -0.0183
GACATACC | 0.0342
ACACTCGG | -0.0366
GCTGGGAC | -0.228
ATACACTG | 0.0725
GTATGAAC | -0.0343
AATCACTG | 0.212
AATCCGTA | 0.115
GCACCCTA | 0.0122
AATCTTTC | -0.0966
AGTAGGAG | -0.154
GGGGTAAA | 0.0519
AGAAGGTG | -0.079
CCGCTAGA | -0.236
CTGGATGA | -0.0786

Sequence | PBM E-score
GGGACTGA | -0.262
AGAAAGCT | -0.0881
TCAGATAA | 0.101
ACGCCCAG | 0.0946
CCGCACCC | 0.293
CGCCGACC | 0.0509
AGGCATCA | 0.215
CGAAGAGA | -0.00011
AGGAAGCG | -0.0555
ACGGACCT | 0.0506
GGCGGGCA | 0.0418
AACAGTCC | -0.215
AGATCGCA | -0.0911
AGTACGAA | 0.152
TAGTCGAA | 0.0218
CAGTGGAC | -0.116
ATGCCTCA | 0.279
CGGAGCAG | -0.104
GCTGGCGA | -0.0672
GTAGTAGA | 0.0861
CAACAACA | 0.166
TATATGCA | 0.0222
CGCCAGCA | -0.163
ACGATACT | -0.0701
ATGCGTAG | -0.0597

Sequence | PBM E-score
CCTGCATC | -0.0268
AATGCCAG | -0.0782
ATTATAGC | -0.0736
CTACATAC | 0.039
CGGCGAGA | 0.325
ATGCCACC | -0.029
ATTATCCA | 0.114
GGTTTCTA | 0.122
CTGTGTTA | -0.0909
CCGGCCAA | -0.254
CTACGGCA | 0.473
GATTTAAC | 0.148
GTCGTTCA | -0.0946
AATTGTGG | -0.082
ATAGTTAC | -0.014
AACCAACC | -0.2
ACAGGTCG | -0.246
CACGTTAC | -0.106
CTTACTTA | 0.00189
CTACACTA | -0.0545
GGTGTAAA | -0.156
GGCTCTGA | 0.14
